Laboratory results as given in PMC6212790.
The other results are listed elsewhere or left out. At the low end of the ranking, values are background and their order means little.

target: T1, GST-Rok-C97-191 (UniProt O34857); test: protein binding microarray; settings: Rok is a gene silencer of Bacillus subtilis; high values mean tight binding; most listed sequences are background and not binding sites; double strand, one strand shown;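 note: rank score from −0.5 (least bound) to 0.5 (best bound)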
T1 sequence: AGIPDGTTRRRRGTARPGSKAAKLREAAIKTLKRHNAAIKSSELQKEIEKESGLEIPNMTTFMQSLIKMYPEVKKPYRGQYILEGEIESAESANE

Sequence | binding signal [E-score]
GGGGTGTA | -0.0373
CTCGAATA | 0.0526
CAAGTGGC | 0.000617
CAGTGCGA | -0.227
GATTTGCA | 0.0398
TAGTAAGA | 0.284
AGGTACTA | 0.229
AGGTAATC | -0.194
ATTGGATG | 0.056
GTATGTGA | 0.184
ACAGTACA | 0.0766
ACCTCCGC | -0.159
GGCGTCCA | -0.17
AATTATAG | 0.303
AAACAGGT | -0.064
ATAGACGC | -0.0442
CCATGGCC | -0.119
AGCGCTTG | -0.0354
ACACCCCG | -0.143
TACGTCTA | 0.116
ACCTAGCC | -0.14
CGAATCTA | 0.256
GATATCGC | 0.201
CTGCTAGA | 0.0982

Sequence | binding signal [E-score]
GACTATCA | -0.147
AGCAACTC | 0.138
CTAACTGA | 0.0665
ACAGTAGA | 0.364
AACATCCA | 0.176
CAACGCGC | -0.0959
GTCTACAA | -0.0759
GAGCCGGC | -0.272
GGTGGTGA | -0.135
GAGTCCCC | -0.343
CTGCGGTC | -0.246
ACACAGAA | 0.154
AAAGCCCG | -0.187
AACCGCAT | 0.0225
CGATGGAG | -0.0357
CTGTTATA | 0.287
AGTACTAG | 0.334
AAGGCCCG | -0.344
AGGTTTTC | 0.0532
ATCTGATG | 0.175
TGTATTAA | 0.294
ATGGGTGC | -0.0815
AAGTATAA | 0.187
ATTGGTCA | 0.111

Sequence | binding signal [E-score]
ATGTGTAG | 0.186
AACTCTCC | -0.134
CCCCTAAC | -0.284
AAGGTACC | 0.184
CGCCAATA | -0.084
ACCTCAAA | 0.0059
AGGCTTCC | -0.222
AGTTGAGC | -0.00213
TCTTCCCA | -0.0301
CCGCCCTC | -0.366
ATTAAGGA | -0.113
CTGTTTCA | -0.0409
ATGCGAAG | 0.124
AATCCTAA | 0.0587
GTCACGCA | -0.0829
AAGCAGTC | -0.0777
AGCGAAAA | 0.211
CCAGCTAA | 0.058
AGGGGCCC | -0.406
CGGGAATC | -0.231
AGATGTTA | 0.107
GGCGCCAC | -0.253
CATCGACG | -0.111
ATTCAGCA | 0.19

Sequence | binding signal [E-score]
CGCTCTCC | -0.284
GCCTTTTA | -0.0356
ATCATCGG | -0.0327
ACGGCTTC | -0.108
GCCTAATA | 0.0461
GCAATTTA | 0.257
CCCCTCGA | -0.219
ATTTAGAG | -0.0563
CTGCGGCA | -0.256
GTATTCAA | 0.0723
AAAGTAGC | 0.261
CCAGTGTA | 0.0845
ACGGTTAA | -0.0663
CTGGAGGA | -0.0909
GGAATGAC | -0.0142
CTTTCTGA | -0.131
CCGGATAG | -0.168
AGTCGTCC | -0.0543
CGAGCCAC | -0.19
AGACCAAC | -0.229
CGTCCGCC | -0.271
GCCGAAAA | 0.0932
